Where a chain is given by its changes, count along the chain named.
T1: full length human D3 on WT115-293F.hPro1.2E5 cells (human, UniProt Q9NYJ7 27-618)
T1 construct: whole, on cells; Isoform printed as Q9NYJ7-1; also called human D3 expressing cell
T1 sequence (looked up): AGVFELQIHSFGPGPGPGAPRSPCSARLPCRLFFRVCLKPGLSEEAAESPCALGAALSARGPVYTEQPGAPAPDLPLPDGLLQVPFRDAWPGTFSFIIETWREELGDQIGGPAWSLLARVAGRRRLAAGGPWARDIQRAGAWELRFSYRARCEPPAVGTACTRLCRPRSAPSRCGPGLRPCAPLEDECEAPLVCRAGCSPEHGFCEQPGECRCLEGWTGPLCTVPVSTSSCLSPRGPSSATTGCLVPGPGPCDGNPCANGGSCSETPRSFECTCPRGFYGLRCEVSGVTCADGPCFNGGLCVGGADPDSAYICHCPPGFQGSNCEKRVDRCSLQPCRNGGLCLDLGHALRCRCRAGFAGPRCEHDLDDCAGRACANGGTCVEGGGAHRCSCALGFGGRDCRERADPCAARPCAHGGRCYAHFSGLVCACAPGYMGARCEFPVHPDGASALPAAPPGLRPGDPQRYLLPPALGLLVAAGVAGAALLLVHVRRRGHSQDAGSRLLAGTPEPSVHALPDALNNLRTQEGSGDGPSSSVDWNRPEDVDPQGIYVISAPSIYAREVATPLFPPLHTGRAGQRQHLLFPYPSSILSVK

T2: WT115-MBP-mPro1.ECD.hFc (mouse, UniProt O88516 33-490)
T2 construct: extracellular domain; Made in Expi293 cells; also called mouse D3; mouse D3 protein; not shown: MBP tag at the N-terminus; human Fc tag at the C-terminus
T2 sequence (looked up): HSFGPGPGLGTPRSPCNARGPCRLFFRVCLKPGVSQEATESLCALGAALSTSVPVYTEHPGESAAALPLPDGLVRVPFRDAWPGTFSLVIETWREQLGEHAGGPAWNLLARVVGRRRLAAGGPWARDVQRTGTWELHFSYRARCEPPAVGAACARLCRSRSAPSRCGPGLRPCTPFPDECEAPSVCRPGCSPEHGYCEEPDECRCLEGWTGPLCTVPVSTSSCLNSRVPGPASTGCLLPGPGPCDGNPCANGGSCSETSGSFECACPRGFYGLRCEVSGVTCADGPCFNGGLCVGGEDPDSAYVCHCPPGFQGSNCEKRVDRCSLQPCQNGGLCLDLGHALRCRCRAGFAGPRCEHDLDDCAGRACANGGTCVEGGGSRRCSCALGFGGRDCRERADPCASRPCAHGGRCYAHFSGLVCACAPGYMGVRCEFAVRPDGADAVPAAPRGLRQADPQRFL

T3: WT115-hPro1.ECD.His (human, UniProt Q9NYJ7 27-492)
T3 construct: extracellular domain; Bought protein; also called human D3 ECD protein; human D3-ECD protein; not shown: His tag
T3 sequence (looked up): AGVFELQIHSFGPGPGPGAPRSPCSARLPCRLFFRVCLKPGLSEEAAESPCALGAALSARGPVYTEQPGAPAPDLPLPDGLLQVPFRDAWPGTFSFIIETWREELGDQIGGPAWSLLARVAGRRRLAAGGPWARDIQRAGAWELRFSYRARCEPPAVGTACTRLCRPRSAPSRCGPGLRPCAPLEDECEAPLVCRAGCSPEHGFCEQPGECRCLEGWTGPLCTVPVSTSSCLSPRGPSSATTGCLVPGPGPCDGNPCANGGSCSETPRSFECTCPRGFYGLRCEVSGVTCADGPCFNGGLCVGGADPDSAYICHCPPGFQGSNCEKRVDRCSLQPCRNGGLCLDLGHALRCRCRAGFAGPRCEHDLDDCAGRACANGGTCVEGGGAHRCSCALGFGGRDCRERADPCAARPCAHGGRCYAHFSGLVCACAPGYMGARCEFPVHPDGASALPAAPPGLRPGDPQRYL

B1: WT1156-P3R2-1C2-z102-uIgG1 (Fc fusion)
chain: EVQLVESGGGLVQPGGSLRLSCAASGLTFSTATVGWFRQAPGKGRELIAAIPAYYSTYYASSVKGRFTISRDNAKNSVYLQMNSLRAEDTAVYYCAADDTPSPSRSPFYKHRGQGTMVTVSS[gap - human IgG1 Fc]
B2: WT1156-P3R2-1C2-uIgG1 (Fc fusion)
chain: B1 chain with P14T, G16D, G44E, E46D, S77T, R86K, A87P, A91G, M117Q
notes: It speaks of a dimer only in embodiments; Biotinylated in the mouse D3 ELISA
B3: WT1156-P3R2-1C2-z109-uIgG1 (Fc fusion)
chain: B1 chain with I48V, V78L, A87P
B4: WT1156-P3R2-1H6-uIgG1 (Fc fusion)
chain: QVQLVESGGGLVQAGGSLRLSCAASGRTFRSYAMGWFRQAPGKEREFVAAISWIGGGTYYADSVKGRFTISGDNAKNTLYLQMNSLKPEDTAVYYCAASSLLRHGHMFEESDYWGQGTQVTVSS[gap - human IgG1 Fc]
B5: WT1156-P3R2-1H6-z100-uIgG1 (Fc fusion)
chain: B4 chain with L11V, A14P, A75S, K87R, P88A, Q119M
B6: WT1156-P8R2-1H1-uIgG1 (Fc fusion)
chain: EVDLVESGGGLVQPGGSLRLSCAASGRTASRYSMVWFRQAPGQEREFVGGNSAHDGRSAYTDSVKGRFTFSRDNAKNTGYLQMNSLRPDDTAVYYCAADTNPPYGPPWSTPSEYEYWGHGTQVTVSS[gap - human IgG1 Fc]
B7: WT1156-P3R2-1C9-uIgG1 (Fc fusion)
chain: B6 chain with E1Q, D3Q, P14A, A29T, T61A, N84S

Legend:
[1] = biological target: T1, full length human D3 on …; test: FACS on WT115-293F.hPro1.2E5 cells (FIG. 2b)
Procedure: (§1) Anti-human D3 antibodies WT115-BMK1 and WT115-BMK2 were used as positive controls. Human IgG1 isotype antibody was used as a negative control. The cells were washed and resuspended in 4% paraformaldehyde. MFI of the cells was measured by a flow cytometer and analyzed by FlowJo.

[2] = biological target: T4, full length cynomolgus D3 on WT115-Flpin293.cPro1.pool cells (cynomolgus monkey); test: FACS on WT115-Flpin293.cPro1.pool cells (FIG. 3b)
T4 construct: whole, on cells; The paragraph on the cell pool prints none; also called cynomolgus monkey D3 expressing cell; Cyno D3
Procedure: (§2) WT115-Flpin293.cPro1.pool cells (1×10⁵ cells/well) were incubated with various concentrations of antibodies (4-fold serially diluted from 10 nM to 0.00061 nM) at 4° C. for 1 hour. After washing with 1×PBS/1% BSA, a secondary antibody, Alexa Fluor 647-labeled goat anti-human IgG (1:150, Jackson ImmunoResearch, 109-605-098), as added and incubated with cells at 4° C. in dark for 1 hour. Anti-human D3 antibodies WT115-BMIK1 and WT115-BMK2 were used as positive controls. Human IgG1 isotype antibody was used as a negative control. The cells were washed with 1×PBS/1% BSA and resuspended in 4% paraformaldehyde, and incubated with cells at 4° C. in dark for 0.5 hour. Then change the buffer with 1×PBS/1% BSA and filter the cells. MFI of the cells was measured by a flow cytometer and analyzed by FlowJo.

WT115-MBP-mPro1.ECD.hFc [3] = biological target: T2, WT115-MBP-mPro1.ECD.hFc; test: ELISA on immobilized WT115-MBP-mPro1.ECD.hFc (FIG. 4b)
Procedure: (§3) Plates were pre-coated with 1 μg/mL, 100 μL per well of WT115-MBP-mPro1.ECD.hFc at 4° C. overnight. The antigen was diluted in coating buffer from stock solution. Next day, the plates were washed using 1×PBST for one time, and blocking was done by adding 200 μL of 1×PBS/2% BSA. Antibodies were serially diluted (5-fold serially diluted from 20 nM to 0.000256 nM) in blocking buffer. After 1-hour blocking, the plates were washed using 1×PBST for 3 times, and then the antibody were added to the plates and incubated at ambient temperature for 1 hour. […] WT114-BMK1-Biotin antibody was used as a negative control. Binding of antibodies to the immobilized mouse D3 was detected by HRP-labeled secondary antibody (Invitrogen, SNN1004), which was diluted in 1×PBS/2% BSA at a concentration of 1:30000. After incubation, the plates were washed using 1×PBST for 6 times. The color was developed by dispensing 100 μL of TMB substrate, and then reaction was stopped by adding 100 μL of 2M HCl. Absorbance was read at 450 nm and 540 nm using a microplate spectrophotometer. All samples were tested in duplicate.

WT115-hPro1.ECD.His [4] = biological target: T3, WT115-hPro1.ECD.His; test: SPR Biacore T200, antibody captured on anti-human IgG Fc chip, WT115-hPro1.ECD.His as analyte
Procedure: The binding affinity of anti-D3 antibodies to human D3 ECD protein was detected by SPR assay using Biacore T200. Each antibody tested was captured on an anti-human IgG Fc antibody immobilized CM5 sensor chip (GE). WT115-hPro1.ECD.His at different concentrations were injected over the sensor chip at a flow rate of 30 μl/min for an association phase of 180 s, followed by 3600 s dissociation. The chip was regenerated by 10 mM glycine (pH 1.5) after each binding cycle.
The other experimental data was fitted by 1:1 model using Langmiur analysis. The sensorgrams of blank surface and buffer channel were subtracted from the test sensorgrams. Molecular weight of 34 KDa was used to calculate the molar concentration of analyte.

[5] = biological target: T1, full length human D3 on …; test: FACS on WT115-293F.hPro1.2E5 cells
Procedure: as §1

[6] = biological target: T1, full length human D3 on …; test: cell-based or functional assay
WT115-MBP-mPro1.ECD.hFc [7] = biological target: T2, WT115-MBP-mPro1.ECD.hFc; test: ELISA on immobilized WT115-MBP-mPro1.ECD.hFc (FIG. 4a)
Procedure: as §3

WT115-hPro1.ECD.His [8] = biological target: T3, WT115-hPro1.ECD.His; test: ELISA on immobilized WT115-hPro1.ECD.His
Procedure: Plates were pre-coated with 1 μg/mL, 100 μL per well of WT115-hPro1.ECD.His at 4° C. overnight. The antigen was diluted in coating buffer (0.02 M Na₂CO₃ and 0.18 M NaHCO₃, pH9.2) from stock solution. Next day, the plates were washed using 1×PBST (PBS containing 0.05% tween-20) for one time, and blocking was done by adding 200 μL of 1×PBS/2% BSA. […] After 1-hour blocking, the plates were washed using 1×PBST for 3 times, and then the antibodies were added to the plates and incubated at ambient temperature for 1 hour. Binding of antibodies to the immobilized human D3 was detected by HRP-labeled secondary antibody (Bethyl, A80-304P), which was diluted in 1×PBS/2% BSA at a concentration of 1:10000. After incubation, the plates were washed using 1×PBST for 6 times. The color was developed by dispensing 100 μL of TMB substrate, and then reaction was stopped by adding 100 μL of 2M HCl. Absorbance was read at 450 nm and 540 nm using a microplate spectrophotometer. Anti-human D3 antibodies WT115-BMK1 and WT115-BMK2 were used as positive controls. Human IgG1 isotype antibody was used as a negative control. All samples were tested in duplicate.

[9] = biological target: T4, full length cynomolgus D3 on …; test: FACS on WT115-Flpin293.cPro1.pool cells
Procedure: as §2

[10] = biological target: T1, full length human D3 on …; test: cell-based or functional assay; remark: listed apart in the source

Binder	EC50 [1]	EC50 [2]	EC50 (WT115-MBP-mPro1.ECD.hFc [3])	Kd (WT115-hPro1.ECD.His [4])	koff (WT115-hPro1.ECD.His [4])	kon (WT115-hPro1.ECD.His [4])	EC50 [5]	Internalization EC50 [6]	EC50 (WT115-MBP-mPro1.ECD.hFc [7])	EC50 (WT115-hPro1.ECD.His [8])	EC50 [9]	Internalization (EC50, nM) [10]
B1	0.088 nM	0.083 nM	0.0067 nM	0.0977 nM	1.78e-05 s⁻¹	183000 M⁻¹ s⁻¹	–	–	–	–	–	–
B2	–	–	–	0.0668 nM	1.28e-05 s⁻¹	192000 M⁻¹ s⁻¹	0.15 nM	0.65 nM	0.0092 nM	0.013 nM	0.14 nM	–
B3	0.14 nM	0.096 nM	0.0075 nM	0.165 nM	3.06e-05 s⁻¹	185000 M⁻¹ s⁻¹	–	–	–	–	–	12.2 nM
B4	–	–	–	< 0.0926 nM	< 1e-05 s⁻¹	108000 M⁻¹ s⁻¹	0.52 nM	0.95 nM	–	0.014 nM	0.25 nM	–
B5	–	0.42 nM	–	0.217 nM	1.74e-05 s⁻¹	80200 M⁻¹ s⁻¹	–	–	–	–	–	–
B6	–	–	–	0.257 nM	5.14e-05 s⁻¹	200000 M⁻¹ s⁻¹	0.45 nM	0.47 nM	–	0.021 nM	0.21 nM	–
B7	–	–	–	1.32 nM	0.000238 s⁻¹	180000 M⁻¹ s⁻¹	0.25 nM	0.46 nM	–	0.026 nM	0.07 nM	–
